Results published in publication PMC9356023.
Where two headings read alike, the source gives them in different places. Results are given in words; binding and its absence hold for the method and conditions named. Binding seen in cells or lysates may run through a third protein. Some binding calls cover weakened binding; strength is not graded here. For some assays here: Where a sequence is shown, tags or fusion partners need not be part of it. Blank lines part the entries; values can stand above or below the molecule they belong to.

The chains behind the UniProt entries cited, without tags or fusion partners.
UniProt O60678: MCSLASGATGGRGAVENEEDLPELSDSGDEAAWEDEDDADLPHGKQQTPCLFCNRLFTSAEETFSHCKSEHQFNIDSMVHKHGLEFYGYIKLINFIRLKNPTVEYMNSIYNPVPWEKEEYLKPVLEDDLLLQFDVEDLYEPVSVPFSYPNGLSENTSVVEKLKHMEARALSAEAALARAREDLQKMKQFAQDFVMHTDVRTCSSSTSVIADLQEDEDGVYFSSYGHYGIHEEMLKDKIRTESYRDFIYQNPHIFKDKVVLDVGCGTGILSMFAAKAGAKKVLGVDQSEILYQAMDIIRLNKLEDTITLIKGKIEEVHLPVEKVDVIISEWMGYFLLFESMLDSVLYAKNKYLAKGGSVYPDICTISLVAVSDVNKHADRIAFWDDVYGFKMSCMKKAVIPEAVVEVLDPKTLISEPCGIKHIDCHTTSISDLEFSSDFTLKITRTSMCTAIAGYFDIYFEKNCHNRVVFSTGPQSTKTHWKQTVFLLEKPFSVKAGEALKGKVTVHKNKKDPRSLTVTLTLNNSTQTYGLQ
UniProt Q6NZB1: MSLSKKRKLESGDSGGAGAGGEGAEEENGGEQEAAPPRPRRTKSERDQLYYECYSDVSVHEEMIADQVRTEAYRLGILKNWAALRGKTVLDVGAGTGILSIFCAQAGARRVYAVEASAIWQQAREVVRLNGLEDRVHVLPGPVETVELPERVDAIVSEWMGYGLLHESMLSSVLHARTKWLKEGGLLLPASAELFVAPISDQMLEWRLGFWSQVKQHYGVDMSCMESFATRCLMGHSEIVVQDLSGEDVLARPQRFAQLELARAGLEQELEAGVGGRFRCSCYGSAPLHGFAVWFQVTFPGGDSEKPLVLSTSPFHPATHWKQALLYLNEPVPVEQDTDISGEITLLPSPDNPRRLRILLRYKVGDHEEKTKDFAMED
UniProt Q9NR22: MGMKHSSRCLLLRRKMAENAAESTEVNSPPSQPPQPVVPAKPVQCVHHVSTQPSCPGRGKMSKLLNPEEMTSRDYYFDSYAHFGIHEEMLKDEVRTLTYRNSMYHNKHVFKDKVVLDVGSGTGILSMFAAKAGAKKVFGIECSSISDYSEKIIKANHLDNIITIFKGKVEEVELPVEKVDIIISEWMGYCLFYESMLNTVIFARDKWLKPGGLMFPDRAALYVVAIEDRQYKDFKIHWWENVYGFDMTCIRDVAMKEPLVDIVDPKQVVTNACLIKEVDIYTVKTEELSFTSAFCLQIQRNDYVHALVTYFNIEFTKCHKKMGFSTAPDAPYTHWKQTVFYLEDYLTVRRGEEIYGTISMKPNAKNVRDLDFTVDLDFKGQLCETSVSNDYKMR
UniProt Q9JIF0: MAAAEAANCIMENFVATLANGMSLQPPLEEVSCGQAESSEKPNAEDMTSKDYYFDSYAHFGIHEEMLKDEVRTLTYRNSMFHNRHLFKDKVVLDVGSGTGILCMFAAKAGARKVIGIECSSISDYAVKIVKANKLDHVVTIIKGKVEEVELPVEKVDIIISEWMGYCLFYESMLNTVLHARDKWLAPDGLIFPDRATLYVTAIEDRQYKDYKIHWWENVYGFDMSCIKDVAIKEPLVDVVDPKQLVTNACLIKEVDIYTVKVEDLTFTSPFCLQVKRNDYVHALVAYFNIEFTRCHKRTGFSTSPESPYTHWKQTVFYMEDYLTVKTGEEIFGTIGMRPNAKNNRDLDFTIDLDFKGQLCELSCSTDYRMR

Columns and labels:
GST-PRMT3 = GST-PRMT3 (UniProt O60678); assay: pull-down; GST-PRMTs immobilised on glutathione Sepharose beads, incubated with whole cell lysate of HEK-293 cells expressing VEGFR-2, 3-4 h at 4°C; blot with anti-VEGFR-2 antibody; only the target purified
GST-PRMT6 = GST-PRMT6 (UniProt Q6NZB1); assay: as above
GST-PRMT7 = biological target: T1, GST-PRMT7 (UniProt Q9NVM4); assay: as above
T1 sequence: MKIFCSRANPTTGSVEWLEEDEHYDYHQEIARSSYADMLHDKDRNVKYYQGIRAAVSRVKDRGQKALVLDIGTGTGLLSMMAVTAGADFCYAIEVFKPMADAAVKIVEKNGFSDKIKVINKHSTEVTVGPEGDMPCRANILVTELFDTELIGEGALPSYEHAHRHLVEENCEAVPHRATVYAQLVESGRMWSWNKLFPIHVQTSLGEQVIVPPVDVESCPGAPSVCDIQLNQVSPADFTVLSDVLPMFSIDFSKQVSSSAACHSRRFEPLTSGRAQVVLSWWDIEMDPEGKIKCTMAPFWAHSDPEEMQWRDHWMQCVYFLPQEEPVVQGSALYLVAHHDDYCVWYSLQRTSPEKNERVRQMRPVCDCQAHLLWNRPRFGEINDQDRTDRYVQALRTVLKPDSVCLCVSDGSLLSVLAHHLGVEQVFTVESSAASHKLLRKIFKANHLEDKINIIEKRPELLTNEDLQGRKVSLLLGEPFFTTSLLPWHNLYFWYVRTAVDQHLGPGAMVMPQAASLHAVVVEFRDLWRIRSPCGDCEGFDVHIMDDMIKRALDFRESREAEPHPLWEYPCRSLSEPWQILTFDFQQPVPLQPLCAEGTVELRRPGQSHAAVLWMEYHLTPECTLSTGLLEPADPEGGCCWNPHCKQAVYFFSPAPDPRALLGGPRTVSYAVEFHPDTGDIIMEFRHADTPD

GST-PRMT8 = GST-PRMT8 (UniProt Q9NR22); assay: as above
GST-Src-SH2 [1] = biological target: GST-Src-SH2 (UniProt P12931); assay: pull-down; GST-Src-SH2 Glutathione Sepharose beads preincubated with Y820 unphosphorylated or Y820 phosphorylated peptide, then whole cell lysate of HEK-293 cells expressing wild-type VEGFR-2, unstimulated or stimulated with VEGF for 10 min; Western blot; only the target purified
GST-Src-SH2 [2] = biological target: GST-Src-SH2 (UniProt P12931); assay: pull-down; GST-Src-SH2 immobilised on Glutathione Sepharose beads, incubated with whole cell lysates of serum-starved HEK-293 cells expressing wild-type or mutant VEGFR-2, unstimulated or stimulated with VEGF for 10 min; 3-4 h at 4°C; blot with anti-VEGFR-2 antibody; only the target purified
[3] = biological target: vascular endothelial growth factor receptor-2 (VEGFR-2), wild type (UniProt P35918); assay: co-IP; HEK-293 cells expressing VEGFR-2 transfected with c-Myc-tagged PRMT constructs, 48 h; with or without VEGF; whole cell lysate immunoprecipitated with anti-VEGFR-2 antibody, protein-A Sepharose, washed 4X with lysis buffer containing 1% SDS; blot with anti-c-Myc antibody
[4] = biological target: vascular endothelial growth factor receptor-2 (VEGFR-2), wild type (UniProt P35918); assay: as above; remark: listed apart in the source

Molecule: tyrosine 820 mutant VEGFR-2 (F820/VEGFR-2) (from UniProt P35918 20-1345) (receptor)
binding (GST-Src-SH2 [2]): no binding

Molecule: arginine 817 mutant VEGFR-2 (A817/VEGFR-2) (from UniProt P35918 20-1345) (receptor)
binding (GST-Src-SH2 [2]): binds

Molecule: PRMT6, C-terminus c-Myc-tagged (from UniProt Q6NZB1 1-378) (enzyme)
binding [3]: binds

Other lines, results leading:

binding (GST-PRMT3): binds weakly | binding (GST-PRMT6): binds weakly | binding (GST-PRMT7): binds weakly | binding (GST-PRMT8): binds weakly | binding (GST-Src-SH2 [1]): binds | binding (GST-Src-SH2 [2]): binds
Molecule: vascular endothelial growth factor receptor-2 (VEGFR-2), wild type (from UniProt P35918 20-1345)

binding [3]: binds
Molecule: PRMT1, C-terminus c-Myc-tagged (from UniProt Q9JIF0 1-371) (enzyme)

binding [4]: binds
B1: PRMT4 N-terminal alone (PRMT4-1-142) (domain or fragment, UniProt Q9WVG6 1-142)
chain: MAAAAATAVGPGAGSAGVAGPGGAGPCATVSVFPGARLLTIGDANGEIQRHAEQQALRLEVRAGPDAAGIALYSHEDVCVFKCSVSRETECSRVGRQSFIITLGCNSVLIQFATPHDFCSFYNILKTCRGHTLERSVFSERT
